Data taken from publication PMC7673117.
These are yes or no findings as the source states them, for the method shown. Some entries that bind do so weakly or less than the wild type.

Amino acid sequences for entries named in this document (tags omitted). Residues count along the entry.
UniProt P13747, residues 22-358: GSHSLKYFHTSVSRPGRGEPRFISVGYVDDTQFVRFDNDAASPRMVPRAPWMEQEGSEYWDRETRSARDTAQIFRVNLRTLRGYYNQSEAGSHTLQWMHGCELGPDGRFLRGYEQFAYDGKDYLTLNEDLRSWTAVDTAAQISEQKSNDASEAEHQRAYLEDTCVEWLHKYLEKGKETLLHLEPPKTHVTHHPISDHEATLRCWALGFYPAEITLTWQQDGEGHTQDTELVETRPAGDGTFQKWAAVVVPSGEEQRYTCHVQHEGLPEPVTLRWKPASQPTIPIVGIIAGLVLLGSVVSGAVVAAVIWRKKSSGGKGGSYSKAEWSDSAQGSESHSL

Molecular target: human leukocyte antigen (HLA)-E on 721.174 cells (human (endogenous in 721.174 cells)) (UniProt P13747)
Experiment: flow cytometry on cells; only the binder purified

Binder: GIDPHLPTL [LMP1 peptide variant … (GID)]
- binding: binds
